Experimental data from patent publication US11939397B2, “ENTPD2 antibodies, combination therapies, and methods of using the antibodies and combination therapies” (Novartis AG, priority 2018, dated 2024).

T1: ENTPD2 (Homo sapiens, UniProt Q9Y5L3)
T1 sequence (Q9Y5L3 1-495): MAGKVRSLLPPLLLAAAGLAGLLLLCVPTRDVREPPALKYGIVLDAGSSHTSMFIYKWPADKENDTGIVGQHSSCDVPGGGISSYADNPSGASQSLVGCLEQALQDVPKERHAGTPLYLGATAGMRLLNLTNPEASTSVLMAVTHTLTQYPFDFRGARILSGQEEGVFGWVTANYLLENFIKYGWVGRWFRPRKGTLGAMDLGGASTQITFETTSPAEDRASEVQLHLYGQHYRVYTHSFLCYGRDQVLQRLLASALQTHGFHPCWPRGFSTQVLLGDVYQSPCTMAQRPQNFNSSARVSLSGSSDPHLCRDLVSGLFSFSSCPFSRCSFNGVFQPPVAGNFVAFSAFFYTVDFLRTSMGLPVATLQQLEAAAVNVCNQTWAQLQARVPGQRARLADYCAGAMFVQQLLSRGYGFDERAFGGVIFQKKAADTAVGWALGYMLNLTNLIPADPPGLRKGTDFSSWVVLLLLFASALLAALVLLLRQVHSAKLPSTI

T2: human ENTPD2 (Homo sapiens, UniProt Q9Y5L3)
T2 construct: residues 29-462 of human or cyno ENTPD2 were cloned into expression vector; GP67 signal peptide (N); made in house; host or cells: High Five (Trichoplusia ni) insect cells, baculovirus
T2 sequence (Q9Y5L3 29-462): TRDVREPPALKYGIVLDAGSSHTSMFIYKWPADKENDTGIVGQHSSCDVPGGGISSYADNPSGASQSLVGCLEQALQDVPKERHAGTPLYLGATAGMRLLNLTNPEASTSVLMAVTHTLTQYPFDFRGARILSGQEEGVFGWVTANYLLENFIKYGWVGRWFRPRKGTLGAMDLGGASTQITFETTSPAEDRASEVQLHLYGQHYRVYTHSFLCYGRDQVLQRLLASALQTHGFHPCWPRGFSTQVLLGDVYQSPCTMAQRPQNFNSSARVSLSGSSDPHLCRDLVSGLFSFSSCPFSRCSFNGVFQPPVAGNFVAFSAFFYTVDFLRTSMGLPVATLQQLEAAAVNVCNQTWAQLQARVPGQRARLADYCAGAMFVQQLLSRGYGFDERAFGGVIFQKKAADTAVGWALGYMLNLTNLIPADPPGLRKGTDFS

T3: mouse ENTPD2 (Mus musculus, UniProt O55026)
T3 construct: residues 29-462 of mouse or rat ENTPD2 (the extracellular domain); mouse IgK signal peptide (N); made in house; host or cells: FreeStyle 293-F cells, transient
T3 sequence (O55026 29-462): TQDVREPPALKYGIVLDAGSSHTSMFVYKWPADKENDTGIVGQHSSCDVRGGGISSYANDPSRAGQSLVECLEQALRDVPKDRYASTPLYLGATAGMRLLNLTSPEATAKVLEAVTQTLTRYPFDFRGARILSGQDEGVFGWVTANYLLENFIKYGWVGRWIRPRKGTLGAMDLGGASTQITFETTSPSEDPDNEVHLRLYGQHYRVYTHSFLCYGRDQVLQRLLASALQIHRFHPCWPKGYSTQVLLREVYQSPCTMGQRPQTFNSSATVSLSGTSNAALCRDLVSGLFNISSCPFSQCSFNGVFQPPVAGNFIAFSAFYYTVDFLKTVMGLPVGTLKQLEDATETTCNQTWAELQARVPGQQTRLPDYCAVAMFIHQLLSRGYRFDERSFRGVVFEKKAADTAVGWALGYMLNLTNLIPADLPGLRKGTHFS

B1: mAb16: hybridoma-derived lead inhibitory anti-human ENTPD2 mAb (antibody)
heavy: DIQLQESGPGLVKPSQSLSLTCSVTGYSITSGYYWNWIRQFPGNKLEWMGYISYDGDNNYNPSLKNRISITRDTSKNQFFLKLSSVTTEDTATYYCAGGYYRYGLSYYYVMDYWGQGTSVTVSSASTKGPSVFPLAPSSKSTSGGTAALGCLVKDYFPEPVTVSWNSGALTSGVHTFPAVLQSSGLYSLSSVVTVPSSSLGTQTYICNVNHKPSNTKVDKRV[human IgG1 Fc skipped]
light: DTVLTQSPASLAVSLGQRATISCKASQSVDYDGNSYMNWYQQKPGQPPKLLIYAASNLESGIPARFSGSGSGTDFTLNIHPVEEEDAATYYCQQSNEDPPTFGGGTKLEIKRTVAAPSVFIFPPSDEQLKSGTASVVCLLNNFYPREAKVQWKVDNALQSGNSQESVTEQDSKDSTYSLSSTLTLSKADYEKHKVYACEVTHQGLSSPVTKSFNRGEC
B2: mAb4: anti-human ENTPD2 antibody generated by humanization and optimization of mAb16 (antibody)
heavy: QIQLQESGPGLVKPSQTLSLTCTVSGYSITSGYYWNWIRQHPGKGLEWIGYISYDADNNYNPSLKNRVTISRDTSKNQFSLKLSSVTAADTAVYYCAGGYYRYGLGSYRGSYYYVMDYWGQGTTVTVSSASTKGPSVFPLAPSSKSTSGGTAALGCLVKDYFPEPVTVSWNSGALTSGVHTFPAVLQSSGLYSLSSVVTVPSSSLGTQTYICNVNHKPSNTKVDKRV[human IgG1 Fc skipped]
light: ETVLTQSPATLSVSPGERATISCKASQSVDYEGHSYMNWYQQKPGQAPRLLIYAASNLESGIPARFSGSGSGTDFTLTISSVEPEDAATYYCQQSNEDPPTFGGGTKLEIKRTVAAPSVFIFPPSDEQLKSGTASVVCLLNNFYPREAKVQWKVDNALQSGNSQESVTEQDSKDSTYSLSSTLTLSKADYEKHKVYACEVTHQGLSSPVTKSFNRGEC
B3: mAb5: anti-human ENTPD2 antibody generated by humanization and optimization of mAb16 (antibody)
heavy: QIQLQESGPGLVKPSQTLSLTCTVSGYSITSGYYWNWIRQHPGKGLEWIGYISYDADNNYNPSLKNRVTISRDTSKNQFSLKLSSVTAADTAVYYCAGGYYRYGLGSYRGSYYYVMDYWGQGTTVTVSSASTKGPSVFPLAPSSKSTSGGTAALGCLVKDYFPEPVTVSWNSGALTSGVHTFPAVLQSSGLYSLSSVVTVPSSSLGTQTYICNVNHKPSNTKVDKRV[human IgG1 Fc skipped]
light: ETVLTQSPATLSVSPGERATISCKASQSVDYDGNSYMNWYQQKPGQAPRLLIYAASNLESGIPARFSGSGSGTDFTLTISSVEPEDAATYYCQQSNEDPPTFGGGTKLEIKRTVAAPSVFIFPPSDEQLKSGTASVVCLLNNFYPREAKVQWKVDNALQSGNSQESVTEQDSKDSTYSLSSTLTLSKADYEKHKVYACEVTHQGLSSPVTKSFNRGEC

Key:
[1] = target: T1, ENTPD2; assay: Hybridoma mAb screen, cell-based assay for inhibition of ATP hydrolysis by ENTPD2; details: hybridoma-derived mAbs
Text: Hybridoma-derived mAbs were screened in a cell-based assay for inhibition of ATP hydrolysis by ENTPD2.

[2] = target: T2, human ENTPD2; assay: Biacore SPR affinity to human ENTPD2 ECD; assay type: binding; details: 25° C.
Experimental: (§1) Biacore™ Screening: Affinity was measured by determining the kinetic rate constants using surface plasmon resonance (SPR) on a Biacore™ T200 or T100 with the T200 sensitivity upgrade instrument (Biacore™, GE Healthcare). Antibodies were captured on CM5 sensor chips (Biacore™, GE Healthcare) prepared with a mouse anti-human IgG Fc antibody (ThermoFisher catalogue #05-4200) amine coupled to the surface. […] ENTPD2 analytes were allowed to associate for 180 s and dissociate for up to 1800 s depending on the off-rate of the antibody at a flow rate of 30 μL/min. The running buffer was PBS pH 7.2 (prepared from a Corning 10× stock, cat #46-013-CM)+0.05% Tween 20. Regeneration was accomplished with 30 s injections of 3 or 4 M MgCl2 to remove all the captured antibody and remaining complex from the surface, after which fresh antibody was captured. The raw data were analyzed using Biacore™ T200 Evaluation Software version 1.0 and fit to a 1:1 binding model, with all parameters set to fit globally except for RI, which was set to fit locally.

[3] = system: cynomologus (cyno) ENTPD2; assay: Biacore SPR affinity to cyno ENTPD2 ECD; assay type: binding, cynomolgus monkey; details: 25° C.
Experimental: as §1

[4] = target: T3, mouse ENTPD2; assay: Antibody specificity: binding to mouse ENTPD2; details: SPR
Experimental: FACS screening: Specific binding of candidate antibodies to endogenously expressed ENTPD2 was assessed by flow cytometry. Cells were rinsed thoroughly with 1×PBS and treated with Accutase (Millipore #SCR005) to lift from growth plates and resuspended at approximately 1×10^5 cells/90 μL in 1×FACS buffer (2% FBS+0.1% NaN3 in PBS). In a 96-well U-bottom plate, 10 μL of 10× antibody solution in FACS buffer was pre-seeded and 90 μL of cell suspension was added. […] Geometric mean fluorescence intensity was calculated on live single cells using FlowJo software.
ELISA screening on directly coated antigen: Maxisorp™ 384-well plates (Thermo Nunc) were coated with 2 μg/ml of recombinant ENTPD2 diluted in PBS. […] Plates were washed again and bound antibodies were detected by incubation with anti-hFc gamma conjugated to horseradish peroxidase (HRP; Jackson ImmunoResearch, Cat #115-035-098, diluted 1:5000 in 1×TBST+2% BSA) for 1 hr at room temperature followed by washing with TBST and afterwards addition of SureBlue Peroxidase substrate (KPL, #52-00-03) substrate. After 15 min, absorbance at 650 nm was recorded and analyzed in GraphPad Prism6.
Biacore™ Screening: Affinity was measured by determining the kinetic rate constants using surface plasmon resonance (SPR) on a Biacore™ T200 or T100 with the T200 sensitivity upgrade instrument (Biacore™, GE Healthcare). […]

| Molecule | inhibition of ATP hydrolysis by ENTPD2 (screen outcome) [1] | Human ENTPD2 ka [2] [M⁻¹ s⁻¹] | Human ENTPD2 kd [2] [s⁻¹] | Cyno ENTPD2 ka [3] [M⁻¹ s⁻¹] | Cyno ENTPD2 kd [3] [s⁻¹] | Mouse ENTPD2 BIACore KD [4] |
| --- | --- | --- | --- | --- | --- | --- |
| B1 | lead inhibitory |  |  |  |  |  |
| B2 |  | 300000 | 0.00022 | 140000 | 0.0057 | No binding |
| B3 |  | 270000 | 0.00016 | 290000 | 0.003 | No binding |
